# Experimental data published in PubChem BioAssay AID504706 (National Center for Advancing Translational Sciences (NCATS), 2011).
# The whole screen tested about 320,000 compounds, of which about 200 (0.062%) were called active. The shares of active, inactive and inconclusive entries below differ from those in the screen. The call rests on the fitted dose curve; in most records, active means well fitted activation curve with a large enough effect; inconclusive means small, poorly fitted or top-dose-only effect; inactive means no such curve, though single readings can be large or run the other way. Potencies of inconclusive entries are left out as doubtful fits.
# Experiment: qHTS assay for re-activators of p53 using a Luc reporter; further: nearly all actives have a fitted effect of over 45% in size; on activity change, positive = activation: % of control where 0% means no effect
# Conditions: H1299 p53-A138V BP100-luciferase reporter, luminescence, 24 h; series mostly up to 92.2 µM; activity change, positive = activation: at the top concentration
# Summary of the method: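 p53-null H1299 cells stably carrying temperature-sensitive p53-A138V and a BP100-luciferase reporter were pinned with compounds (4-point, 1:5 series) and held 24 hrs at 37 deg C. Luminescence was read 10 min after detection reagent.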
# Potency means the concentration at half of the fitted maximal effect; tags describe the fitted curve by direction and shape.
SMILES,"activity change, positive = activation",Potency
OC(CCc1ccncc1)COc1ccccc1 (configuration not stated),inactive: -0.993%,–
O=C(Nc1ccccc1O)c1ccc(Cl)cc1,–,"inconclusive [activator, partial curve, poor fit]"
COc1ccc(/C=C(\NC(=O)c2ccc(C)cc2)C(=O)Nc2ccc(C(=O)O)cc2)cc1,inactive: 12.3%,–
O=C(Nc1cccc(O)c1)c1ccccc1,–,"inconclusive [activator, full curve]"
Cc1cc(C)c(NC(=O)CSc2nc3ncc(Br)cc3[nH]2)c(Cl)c1,inactive: -6.51%,–
N#CC1CC(c2ccccc2)Nc2cc(Cl)ccc2N1 (configuration not stated),–,"inconclusive [activator, full curve, poor fit]"
COC(=O)c1ccc(C)c(NC(=O)CSc2nc3[nH]c(=O)cc(O)c3s2)c1,–,"inconclusive [activator, single point]"
CC(C)C(=O)Nc1nnc(SCC(=O)NCc2ccco2)s1,inactive: -12.6%,–
Cc1ccnc(NC(=O)CCCOc2cc(=O)n(C)c3ccccc23)c1,–,"inconclusive [activator, partial curve, poor fit]"
O=C1C(C=Nc2ccccc2O)=C(O)c2ccccc21,–,"inconclusive [activator, partial curve, poor fit]"
CN(Cc1ccccc1)C(=O)COc1ccccc1,–,"inconclusive [activator, partial curve, poor fit]"
O=C(N/N=C\C=C\c1ccc2c(c1)OCO2)c1cccnc1,–,"inconclusive [activator, partial curve, poor fit]"
COCC(C)n1c(C)cc(C(=O)COC(=O)c2n[nH]c3ccccc23)c1C (configuration not stated),–,"inconclusive [activator, partial curve, poor fit]"
Cc1ccc(-n2c(O)c(C=NCc3ccccn3)c3ccccc3c2=O)cc1C,inactive: -13.3%,–
O=C(Nc1cccnc1)c1ccc([N+](=O)[O-])s1,–,"inconclusive [activator, partial curve, poor fit]"
Nc1nc(COc2ccccc2)cs1,–,"inconclusive [activator, single point]"
CC/C(=N\NC(=O)c1ccoc1C)c1ccc(C)o1,–,"inconclusive [activator, partial curve, poor fit]"
O=C(Nc1ccc(F)cc1)c1csc(Cc2ccccc2)n1,–,"inconclusive [activator, partial curve, poor fit]"
CN(C)c1ccc(/C=N/Nc2cccc(C(=O)O)c2)cc1,–,"inconclusive [activator, partial curve, poor fit]"
CC1CCN(C(=O)COC(=O)c2cc([N+](=O)[O-])ccc2N2CCOCC2)CC1,inactive: -2.35%,–
CSc1ccc(-c2cc(=O)c3ccccc3o2)cc1,–,"inconclusive [activator, full curve, poor fit]"
Cc1ccnc(NC(c2ccsc2)c2ccc3ccc(C)nc3c2O)c1 (configuration not stated),inactive: 17.3%,–
COc1ccc(CC2=CC(=O)c3ccccc3C2=O)cc1,inactive: -13.3%,–
NC(=NC(=O)c1ccc(OC(F)(F)F)cc1)c1ccc(C(F)(F)F)cn1,inactive: -3.89%,–

SMILES,"activity change, positive = activation",Potency
CC(=O)n1nc(-c2ccc(C)cc2)nc1NCc1ccco1,inactive: 14.4%,–
Cc1nc(SCC(=O)Nc2nc3ccccc3s2)c(C#N)c(C)c1C,inactive: -10.5%,–
Cc1ccc(Nc2nc3ccccc3c(=O)s2)cc1C,inactive: -22.4%,–
O=C1CCCC/C1=C/Nc1ccc2c(c1)OCO2,–,"inconclusive [activator, partial curve, poor fit]"
O=C(Nc1nc2c(F)c(F)c(F)cc2s1)c1ccco1,–,"inconclusive [activator, partial curve, poor fit]"
CC(=O)Nc1c(C(=O)O)[nH]c2ccccc12,–,"inconclusive [activator, partial curve, poor fit]"
COc1cccc(CN2c3ccc(Br)cc3C(=O)CS2(=O)=O)c1,–,"inconclusive [activator, partial curve, poor fit]"
CS(=O)(=O)N(CC(=O)N1CCCCCC1)c1cccc(Br)c1,inactive: -5.03%,–
C=CCn1c(=NC(=O)c2ccco2)sc2cc(C(=O)OCC)ccc21,–,"inconclusive [activator, partial curve, poor fit]"
CCOC(=O)c1oc2ccccc2c1COC(=O)C(C)NC(=O)c1ccco1 (configuration not stated),–,"inconclusive [activator, single point]"
CCOC(=O)c1csc(N)n1,–,"inconclusive [activator, partial curve, poor fit]"
CCOC(=O)C1CCCN(C(=O)CSc2ccccc2)C1 (configuration not stated),–,"inconclusive [activator, partial curve, poor fit]"
CC1(C)Cc2nc3sc4c(SCC(=O)NCc5ccco5)ncnc4c3cc2CO1,–,"inconclusive [activator, partial curve, poor fit]"
O=C(NCCOc1ccccc1Cl)c1cc(F)c(F)cc1Cl,–,"inconclusive [activator, partial curve, poor fit]"
COc1ccc2c(c1)sc1nc(-c3ccccc3)cn12,inactive: -13.4%,–
O=c1nc2sc3ccccc3n2c(=O)n1-c1ccc(Cl)cc1,–,"inconclusive [activator, full curve, poor fit]"
Clc1cccc(Cl)c1CSc1nnc2ccccn12,–,"inconclusive [activator, partial curve, poor fit]"
CC(C)(C)NC(=O)c1nc2ccccc2s1,–,"inconclusive [activator, single point]"
COc1ccc(NC(=O)Nc2ccc(F)cc2)cn1,–,"inconclusive [activator, full curve, poor fit]"
CN(C)c1nc(N)nc(-c2nc3ccccc3s2)n1,–,"inconclusive [activator, full curve, poor fit]"
O=C(CNc1ccc(F)cc1Cl)Nc1cccc(S(=O)(=O)N2CCCCC2)c1,–,"inconclusive [activator, partial curve, poor fit]"
CC1CCN(c2nnc(-c3cccs3)c3ccccc23)CC1,–,"inconclusive [activator, partial curve, poor fit]"
CCOc1ccc(NC(=O)Cc2ccccc2)cc1,–,"inconclusive [activator, partial curve, poor fit]"
CCN(CC)c1ccc(C=Nc2ccc(N(C)C)cc2)c(O)c1,–,"inconclusive [activator, partial curve, poor fit]"

SMILES,"activity change, positive = activation",Potency
CC(C)Cn1c(=O)c2c(nc3n2CCS3)n(C)c1=O,inactive: 2.22%,–
COc1ccc(C(=O)Nc2cccnc2Sc2ccc(Cl)cc2)cc1,inactive: 8.65%,–
COc1cccc(-c2nnc(NC(C)=O)o2)c1,inactive: 4.12%,–
COc1cc(OC)cc(C(=O)Oc2ccc(/C=N/Nc3nc4ccccc4s3)cc2OC)c1,–,"inconclusive [activator, partial curve, poor fit]"
COCc1ccc(O)c2ncccc12,inactive: 8.26%,–
CC(c1ccccn1)N(C)C(=O)c1ccc2nc(Cc3ccccc3F)oc2c1 (configuration not stated),–,"inconclusive [activator, partial curve, poor fit]"
COc1ccc(/C=C2\SC(=S)N(CC(=O)OCC(=O)Nc3ccc([N+](=O)[O-])cc3OC)C2=O)cc1,inactive: 5.69%,–
CCOC(=O)c1ccc(NC(=O)N(CC)CC)cc1,–,"inconclusive [activator, full curve, poor fit]"
Cc1ccc2c(C)c(C(=O)N3CCN(Cc4ccc5c(c4)OCO5)CC3)oc2c1C,–,"inconclusive [activator, partial curve, poor fit]"
CCOc1ccc(CNC(=S)N/N=C\c2ccc([N+](=O)[O-])cc2)cc1,–,"inconclusive [activator, single point]"
COCCNC(=O)c1cc(-c2cccs2)on1,–,"inconclusive [activator, partial curve, poor fit]"
Cc1ccc(S(=O)(=O)N2CCN(C(=O)CCC(=O)Nc3ccc(F)cc3F)CC2)cc1,inactive: 1.78%,–
COc1ccccc1OCc1cc(C(=O)N2CCN(C)C(c3ccccc3)C2)no1 (configuration not stated),–,"inconclusive [activator, partial curve, poor fit]"
Cc1ccccc1NC(=O)/C(C#N)=C\c1ccsc1,inactive: 10.7%,–
Cc1ccc(C(=O)CSc2nnc(-c3ccco3)n2Cc2ccccc2)cc1,inactive: 10.4%,–
Cc1ccc(NC(=O)CSc2ccc(S(=O)(=O)N3CCCC3)cn2)cc1F,–,"inconclusive [activator, partial curve, poor fit]"
COC(C(=O)N/N=C(\C)CC(=O)Nc1ccc(N(C)C)cc1)c1ccccc1 (configuration not stated),inactive: 1.91%,–
CC(CC(=O)N1CCN(c2ccccc2)CC1)S(=O)(=O)c1ccc2c(c1)NC(=O)CO2 (configuration not stated),inactive: -2.9%,–
O=C(Cc1csc(-c2ccc(F)cc2)n1)Nc1cccc(S(=O)(=O)NC2=NCCC2)c1,inactive: -14.1%,–
CN(C(=O)c1ccc2c(c1)OCO2)C1CCS(=O)(=O)C1 (configuration not stated),inactive: 0.73%,–
CCOC(=O)Nc1nnc(-c2cccc(OC)c2)s1,–,"inconclusive [activator, full curve, poor fit]"
CC(=O)N/C(=C/c1ccccc1)c1ccccc1,–,"inconclusive [activator, single point]"
O=C(COC(=O)c1ccc2c(c1)OCCO2)NCc1ccccc1,–,"inconclusive [activator, partial curve, poor fit]"
COc1cccc(-c2nnn(CC(C)=O)n2)c1,–,"inconclusive [activator, partial curve, poor fit]"
